Some of the results follow. Single values are uncertain, as repeats are few or missing.
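Also: cell number obtained by counting DAPI-stained nuclei in high-throughput microscope images with image analysis software, screen run in 1,536-well plates.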

In the first experiment the test system is SkMel30. The experiment can be described thus: cell count relative to DMSO control; melanoma cells; higher = more viable cells. The settings on record: library dose: low library concentration; 72 h.
In the case of `CCc1ccc(CCOc2ccc(CC3SC(=O)NC3=O)cc2)nc1` (stereo not given) [pioglitazone] + CCCCCCCCCCCC1=C(O)C(=O)C=C(O)C1=O [Embelin] (first compound 2 µM, partner dose 1.2 µM), the cell count is 105%.

On to `COc1cc2c(Oc3ccc4[nH]c(C)cc4c3F)ncnc2cc1OCCCN1CCCC1` [cediranib] + CCCCCCCCCCCC1=C(O)C(=O)C=C(O)C1=O [Embelin] (first compound 0.4 µM, partner dose 1.2 µM), for which the cell count was found to be 115%.

With `CC(C)(C)c1cnc(CSc2cnc(NC(=O)C3CCNCC3)s2)o1` + Cc1cc([N+](=O)[O-])ccc1NS(=O)(=O)c1cc(Cl)ccc1Cl [FH535] (first compound 0.01 µM, partner dose 1 µM), the cell count amounted to 100%.

Molecule `CC(C)(C)c1cnc(CSc2cnc(NC(=O)C3CCNCC3)s2)o1` + N#Cc1c(O)c2c(-c3ccc(-c4ccccc4O)cc3)csc2[nH]c1=O [A769662] (first compound 0.01 µM, partner dose 2 µM) showed a cell count of 83.5%.

A further experiment concerns SkMel5. The description is as above. Conditions: library dose: low library concentration; 72 h.
`CC(C)(C)c1cnc(CSc2cnc(NC(=O)C3CCNCC3)s2)o1` + COc1ccc2c(c1)CCC1C2CCC2(C)C(NCCCCCCN3C(=O)C=CC3=O)CCC12 [U73122] (first compound 0.01 µM, partner dose 0.4 µM): the cell count was 102%.

`CC(C)(C)c1cnc(CSc2cnc(NC(=O)C3CCNCC3)s2)o1` + Oc1cc(-c2nc(-c3ccccc3)[nH]c2-c2ccncc2)ccc1Cl [L779450] (first compound 0.01 µM, partner dose 0.2 µM): the cell count came to 112%.

Turning to `CC(C)(C)c1cnc(CSc2cnc(NC(=O)C3CCNCC3)s2)o1` + Cn1cc(/C=C2\C(=O)Nc3cccnc32)c2ccccc21 [GW441756] (first compound 0.01 µM, partner dose 0.4 µM), the cell count worked out at 86.6%.

Regarding `CN(NC(=O)CC(=O)NN(C)C(=S)c1ccccc1)C(=S)c1ccccc1` + COc1cc2ncnc(Nc3ccc(Oc4ccccc4)cc3)c2cc1OC [SrcI1] (first compound 0.006 µM, partner dose 2 µM), the cell count was found to be 94.8%.

With `CCc1ccc(CCOc2ccc(CC3SC(=O)NC3=O)cc2)nc1` (stereo not given) [pioglitazone] + c1cc(-c2cnn3cc(-c4ccc(OCCN5CCCCC5)cc4)cnc23)ccn1 [Dorsomorphin] (first compound 2 µM, partner dose 0.4 µM), the cell count was 85.5%.

Take `Cc1ccc(NC(=O)c2cccc(N(C)C)c2)cc1NC(=O)c1ccc(O)cc1` + Cn1cc(/C=C2\C(=O)Nc3cccnc32)c2ccccc21 [GW441756] (first compound 2 µM, partner dose 0.4 µM): the cell count is 84.1%.

The molecule `CN(NC(=O)CC(=O)NN(C)C(=S)c1ccccc1)C(=S)c1ccccc1` + O=c1cc(-c2cccc3c2Sc2ccccc2S3)oc(N2CCOCC2)c1 [KU55933] (first compound 0.006 µM, partner dose 1 µM) had a cell count of 96.7%.

`CC(C)(C)c1cnc(CSc2cnc(NC(=O)C3CCNCC3)s2)o1` + O=C1NC(=O)/C(=C/c2ccc(-c3ccc(F)cc3O)o2)S1 [AS252424] (first compound 0.01 µM, partner dose 1 µM): the cell count is 107%.

Molecule `CN(NC(=O)CC(=O)NN(C)C(=S)c1ccccc1)C(=S)c1ccccc1` + O=C(Nc1ccccc1)c1cc([N+](=O)[O-])ccc1Cl [GW9662] (first compound 0.006 µM, partner dose 2 µM) yielded a cell count of 103%.

Regarding `COc1cc2c(Oc3ccc4[nH]c(C)cc4c3F)ncnc2cc1OCCCN1CCCC1` [cediranib] + O=C(O)C(=O)Nc1sc2c(c1C(=O)O)CCNC2 [TCS401] (first compound 0.4 µM, partner dose 1.66667 µM), the cell count amounted to 95.8%.

In the case of `CC(C)(C)c1cnc(CSc2cnc(NC(=O)C3CCNCC3)s2)o1` + O=c1cc(-c2cccc3c2Sc2ccccc2S3)oc(N2CCOCC2)c1 [KU55933] (first compound 0.01 µM, partner dose 1 µM), the cell count came out at 99.2%.

For `COc1cc2c(Oc3ccc4[nH]c(C)cc4c3F)ncnc2cc1OCCCN1CCCC1` [cediranib] + CCc1ccc(CCOc2ccc(CC3SC(=O)NC3=O)cc2)nc1 [pioglitazone] (first compound 0.4 µM, partner dose 2 µM), the cell count is 111%.

Molecule `CN(NC(=O)CC(=O)NN(C)C(=S)c1ccccc1)C(=S)c1ccccc1` + O=C(O)C(=O)Nc1sc2c(c1C(=O)O)CCNC2 [TCS401] (first compound 0.006 µM, partner dose 1.66667 µM) came in with a cell count of 102%.

Molecule `CN(NC(=O)CC(=O)NN(C)C(=S)c1ccccc1)C(=S)c1ccccc1` + Cn1cc(/C=C2\C(=O)Nc3cccnc32)c2ccccc21 [GW441756] (first compound 0.006 µM, partner dose 0.4 µM) had a cell count of 66.5%.

Take `Cc1ccc(NC(=O)c2cccc(N(C)C)c2)cc1NC(=O)c1ccc(O)cc1` + CCc1ccc(CCOc2ccc(CC3SC(=O)NC3=O)cc2)nc1 [pioglitazone] (first compound 2 µM, partner dose 2 µM): the cell count was 102%.

With `COc1cc2c(Oc3ccc4[nH]c(C)cc4c3F)ncnc2cc1OCCCN1CCCC1` [cediranib] + N#Cc1c(O)c2c(-c3ccc(-c4ccccc4O)cc3)csc2[nH]c1=O [A769662] (first compound 0.4 µM, partner dose 2 µM), the cell count was 103%.

For the molecule `CCc1ccc(CCOc2ccc(CC3SC(=O)NC3=O)cc2)nc1` (stereo not given) [pioglitazone] + Cc1cc([N+](=O)[O-])ccc1NS(=O)(=O)c1cc(Cl)ccc1Cl [FH535] (first compound 2 µM, partner dose 1 µM), the cell count stood at 79.9%.

Molecule `CCc1ccc(CCOc2ccc(CC3SC(=O)NC3=O)cc2)nc1` (stereo not given) [pioglitazone] + COC(=O)c1sccc1S(=O)(=O)Nc1ccc(Nc2ccccc2)cc1OC [GSK0660] (first compound 2 µM, partner dose 1 µM) showed a cell count of 103%.

`COc1cc2c(Oc3ccc4[nH]c(C)cc4c3F)ncnc2cc1OCCCN1CCCC1` [cediranib] + COc1ccc(COc2ccc(Cc3cnc(N)nc3N)cc2OC)cc1 [GW2580] (first compound 0.4 µM, partner dose 1 µM) came in with a cell count of 96.4%.

`Cc1ccc(NC(=O)c2cccc(N(C)C)c2)cc1NC(=O)c1ccc(O)cc1` + COc1ccc2c(c1)CCC1C2CCC2(C)C(NCCCCCCN3C(=O)C=CC3=O)CCC12 [U73122] (first compound 2 µM, partner dose 0.4 µM): the cell count was determined as 93.1%.

Take `CN(NC(=O)CC(=O)NN(C)C(=S)c1ccccc1)C(=S)c1ccccc1` + CCc1ccc(CCOc2ccc(CC3SC(=O)NC3=O)cc2)nc1 [pioglitazone] (first compound 0.006 µM, partner dose 2 µM): the cell count was determined as 95.3%.

`CN(NC(=O)CC(=O)NN(C)C(=S)c1ccccc1)C(=S)c1ccccc1` + Oc1nc(-c2ccc(C(F)(F)F)cc2)nc2c1CSCC2 [XAV939] (first compound 0.006 µM, partner dose 2 µM) yielded a cell count of 67.7%.

`CCc1ccc(CCOc2ccc(CC3SC(=O)NC3=O)cc2)nc1` (stereo not given) [pioglitazone] + CCN(CC)CCCCNc1ncc2cc(-c3cc(OC)cc(OC)c3)c(NC(=O)NC(C)(C)C)nc2n1 [PD173074] (first compound 2 µM, partner dose 0.1 µM): the cell count was 98.9%.

`CN(NC(=O)CC(=O)NN(C)C(=S)c1ccccc1)C(=S)c1ccccc1` + Cc1cc([N+](=O)[O-])ccc1NS(=O)(=O)c1cc(Cl)ccc1Cl [FH535] (first compound 0.006 µM, partner dose 1 µM): the cell count turned out to be 82.6%.

As for `CC(C)(C)c1cnc(CSc2cnc(NC(=O)C3CCNCC3)s2)o1` + CCCCCCCCCCCC1=C(O)C(=O)C=C(O)C1=O [Embelin] (first compound 0.01 µM, partner dose 1.2 µM), the cell count was found to be 116%.

Regarding `Cc1ccc(NC(=O)c2cccc(N(C)C)c2)cc1NC(=O)c1ccc(O)cc1` + O=C1NC(=O)/C(=C/c2ccc(-c3ccc(F)cc3O)o2)S1 [AS252424] (first compound 2 µM, partner dose 1 µM), the cell count was 99.3%.

In the case of `CC(C)(C)c1cnc(CSc2cnc(NC(=O)C3CCNCC3)s2)o1` + CCN(CC)CCCCNc1ncc2cc(-c3cc(OC)cc(OC)c3)c(NC(=O)NC(C)(C)C)nc2n1 [PD173074] (first compound 0.01 µM, partner dose 0.1 µM), the cell count came out at 93.4%.

`Cc1ccc(NC(=O)c2cccc(N(C)C)c2)cc1NC(=O)c1ccc(O)cc1` + COc1ccc(-c2ccc3c(N4CCOCC4)nc(N4C[C@@H](C)O[C@@H](C)C4)nc3n2)cc1CO [KU0063794] (first compound 2 µM, partner dose 0.02 µM) yielded a cell count of 101%.

`Cc1ccc(NC(=O)c2cccc(N(C)C)c2)cc1NC(=O)c1ccc(O)cc1` + O=C(Nc1ccccc1)c1cc([N+](=O)[O-])ccc1Cl [GW9662] (first compound 2 µM, partner dose 2 µM) displayed a cell count of 93.2%.

As for `CCc1ccc(CCOc2ccc(CC3SC(=O)NC3=O)cc2)nc1` (stereo not given) [pioglitazone] + COc1ccc(-c2ccc3c(N4CCOCC4)nc(N4C[C@@H](C)O[C@@H](C)C4)nc3n2)cc1CO [KU0063794] (first compound 2 µM, partner dose 0.02 µM), the cell count is 89.8%.

As to `COc1cc2c(Oc3ccc4[nH]c(C)cc4c3F)ncnc2cc1OCCCN1CCCC1` [cediranib] + COC(=O)c1sccc1S(=O)(=O)Nc1ccc(Nc2ccccc2)cc1OC [GSK0660] (first compound 0.4 µM, partner dose 1 µM), the cell count amounted to 95.6%.

These data come from the supplement of paper PMC4604168 (melanoma cell lines).
